Experimental data reported in paper PMC12136788.
The other results are listed elsewhere or left out.

B1: chr5:38918441:38918442:-_ENSMUSG00000005103_ENSMUST00000005234|mus_mus|FALSE|FALSE (ssRNA)
RNA: GGGAGUUCUACAGUCCGACGAUCGGACAAGGUACUGUCAGCGUGCCAGGUCAGGAACAAGACAGACAACAGUCAAGAUACAUUAAAAAAAAAAAAAGAAAAAAAUUCCCAUGAUUCCAUUCUUAAAAAUCAAGCACAAAAUCUCAACAGAGGAUUGAGCAUCA
B2: chr4:95690885:95690886:+_ENSMUSG00000028572_ENSMUST00000156910|mus_mus|mus_mus_mus_hu_False|28_28 (ssRNA)
RNA: GGGAGUUCUACAGUCCGACGAUCUUUAGAAAAUGUUAAAUACCAUGCUAAAAUAUUUUCAAAGGCUUAUUUUAUUUUACCAGAAGUCACAGGCAAGCAGACACUACAAACAUACAAGAAAAUGAAACUCAACAAUAUAACUGUCAACAGAGGAUUGAGCAUCA
B3: 48277764_48277884_2105_CDS_ENSMUSG00000038143_ENSMUST00000110367|mouse|control|control (ssRNA)
RNA: GGGAGUUCUACAGUCCGACGAUCCACACCACCAGAGGCUGCAGGGCCCCCUCCUGGCCCUUUCGGUGACUCCUCCUUGUGCCCAACAGGUUCCCUGGAAGAAUGGGGGGUCUGCCUCUCAGAUGGAGACAGCUUUUUUACCCCCAACAGAGGAUUGAGCAUCA
B4: chr3:148802587:148802588:-_ENSG00000071794_ENST00000310053|hu_hu|FALSE|FALSE (ssRNA)
RNA: GGGAGUUCUACAGUCCGACGAUCUCCAACCACAUGACCUCUCAAACUUCCAAAUAAAACGGAAUCUACUUCUUCAUCACUAGUUAGAAAGUCAUCUGGAGGGAUAACAUCUUGGAAUUCAAAACGUGGAAAGAAAGUUGGAUACAACAGAGGAUUGAGCAUCA
B5: 25298252_25298454_4651_CDS_ENSMUSG00000026944_ENSMUST00000102919|mouse|control|control (ssRNA)
RNA: GGGAGUUCUACAGUCCGACGAUCGUUGGCAGGAGACUUGAGCACACAAGUGGCACCCACACCAGAGGGCAGCCGGAAUGUGCUCACCAGCUGCUGGGGGCUGGCAUCAGGUGACAGCCGUAAUCGGUACUCCUGGCGUUCCUCCAACAGAGGAUUGAGCAUCA
B6: chr5:73697939:73697940:+_ENSMUSG00000029152_ENSMUST00000031038|mus_mus|FALSE|FALSE (ssRNA)
RNA: GGGAGUUCUACAGUCCGACGAUCUCCUUGGGCAAUAUGGUCAGUAAUACCAGUGGGAGUGGACUCGUUCAUAGAAGCACUAAAUGGAAUUGGCUCAUAACGAGGAAGCGCCUCCUUUUCUAUGUUGUCUGCUGCUGGAGAUGUCAACAGAGGAUUGAGCAUCA
B7: chr1:60041781:60041782:+_ENSMUSG00000041040_ENSMUST00000036540|mus_hu|mus_mus_mus_hu_False|78_88 (ssRNA)
RNA: GGGAGUUCUACAGUCCGACGAUCAAGUUUACAAUAGUAAAGUAAAUCAAAUUUAGUAAUGGCAAGUUUUAUUUUCCUUCACAAAAGAAAAUCUUUAUAACCCAGUCCUAGUCUUGGACAUAGUGAAAGCUAUAAAUUCUGACUCAACAGAGGAUUGAGCAUCA
B8: chr1:21268724:21268725:-_ENSG00000075151_ENST00000400422|hu_mus|FALSE|FALSE (ssRNA)
RNA: GGGAGUUCUACAGUCCGACGAUCGGCAAGUGGAGGAAGGCUGGUGGGUGAUGAAGUCCGAGGAGGCUCUGGGGUGGGCUCUCCUGCAGCAGUCUCAGGCAUCUGGCCUGCUUGCUCUUUCUUCUCCCCACUGAGUACGAGCCUCAACAGAGGAUUGAGCAUCA
B9: chr19:8913615:8913616:-_ENSMUSG00000071658_ENSMUST00000096259|mus_hu|mus_mus_mus_hu_False|28_88 (ssRNA)
RNA: GGGAGUUCUACAGUCCGACGAUCAGGGUACCAAAACCUUCUGCCUGAGAUAGGUGCCCCACCCAGUAGGGAGUUGCAGCUGAAAGUAUCUGAUGCAGAAGCAGUGAAUGCAGAGAAGGAGGCCCCUGGGGAGGGCCAGGCCAGCAACAGAGGAUUGAGCAUCA
B10: chr14:78183846:78183847:+_ENSG00000119705_ENST00000557342|hu_hu|hu_hu_hu_mus_False|68_98 (ssRNA)
RNA: GGGAGUUCUACAGUCCGACGAUCUCUCAGAAAUCUUUCUUUCUUUUAUGUUUGAGCUCCGUGCAAAAGUUUUGGCCUUUGAGCUUGAACGUGGAUCUAUGGGAGGGAAAGCACUGUCAGAAAAGGUAAUUUUUUUUUUAAAGACAACAGAGGAUUGAGCAUCA
B11: chr2:202488911:202488912:-_ENSG00000155755_ENST00000286196|hu_mus|hu_hu_hu_mus_False|68_98 (ssRNA)
RNA: GGGAGUUCUACAGUCCGACGAUCAUUGAAACAUUUUCAUAAUAUUGCAGUAGCAUUUCAGCAUUAUUAAUCAAAAACUCAAUUGUAAAUACAUGUAUCUUAUAAAAAUACACUUAAAAACACGAGUGGGGAGCGCAGGCGCCACAACAGAGGAUUGAGCAUCA
B12: 55347292_55347412_1824_3pUTR_ENSMUSG00000021488_ENSMUST00000099490|mouse|control|control (ssRNA)
RNA: GGGAGUUCUACAGUCCGACGAUCUGAUAAGGAAUCGCAAUCUGGAGUCUCAAAGUCUGUCUUAGCAGUGUUCUGUACACUGGAAGAAAAGAGGAAACUUCCUGGUGCAGUGCUAGACCCUGUGAGGCUGUUUGCUAUCCUGGACAACAGAGGAUUGAGCAUCA
B13: chr4:25749455:25749456:-_ENSG00000091490_ENST00000264868|hu_hu|hu_hu_hu_mus_False|88_108 (ssRNA)
RNA: GGGAGUUCUACAGUCCGACGAUCGCAAGCACUAGGAUAGAAAAAUCAUUCAAGGAGAAAAAUGUAAACCAAUGUACAAUGUUAUCGCCUUCCCUGUGUGUGGAGUGUUUGUCUCAAGGCUCCUUCUAGCUGCUGGAUUUGGGACAACAGAGGAUUGAGCAUCA
B14: 42177873_42177993_4935_3pUTR_ENSMUSG00000061080_ENSMUST00000099761|mouse|control|control (ssRNA)
RNA: GGGAGUUCUACAGUCCGACGAUCGAGAGGACCCUGUGACUGUGGGCUGAGAAGAAAGGACUUAAAAAGCAGUUUCACGCUGAGGAAUUUAGUUUCUGUAGGCAGAGGAGGUAAAGUCCAUCUUUGGAGGAGAAACAUACUUUUCAACAGAGGAUUGAGCAUCA

Target: T1, UNK ZnF1-3 (human, UniProt Q9C0B0 31-174)
T1 sequence: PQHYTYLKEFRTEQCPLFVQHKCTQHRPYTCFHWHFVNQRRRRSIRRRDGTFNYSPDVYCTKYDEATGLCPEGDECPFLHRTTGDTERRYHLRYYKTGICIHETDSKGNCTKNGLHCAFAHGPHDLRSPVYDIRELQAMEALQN
Experiment: nsRBNS (natural sequence RNA bind-n-seq); RBNS binding buffer (assumed for nsRBNS): 25 mM Tris pH 7.5, 150 mM KCl, 3 mM MgCl2, 0.01% Triton X-100, 500 ug/ml BSA, 20 U/ml SUPERase-In, 4 C; UNK is unkempt and MSI1 is Musashi-1; names of the RNAs are library labels; protein concentration not given here; high values mean tight binding

Binder | binding signal
B1 | 2.92 enrichment R
B2 | 2.06 enrichment R
B3 | 1.15 enrichment R
B4 | 0.964 enrichment R
B5 | 0.928 enrichment R
B6 | 1.32 enrichment R
B7 | 0.773 enrichment R
B8 | 0.943 enrichment R
B9 | 1.45 enrichment R
B10 | 1.24 enrichment R
B11 | 0.678 enrichment R
B12 | 0.62 enrichment R
B13 | 1.8 enrichment R
B14 | 1.8 enrichment R
